Assay results: the supplement of paper PMC3334620
Over roughly 33,000 sequences, “E-score (-0.5 to 0.5)” has its median near -0.032; the highest 2% begin near 0.36. The list shows a part of the results.

target: T1, Sko1 (UniProt Q02100); test: PBM E-score (8-mer binding enrichment) (E-score (-0.5 to 0.5)); higher = stronger / more preferred TF binding; most listed sequences are background and not binding sites; conditions: protein concentration: 200 nM; construct: GST-full length
T1 sequence: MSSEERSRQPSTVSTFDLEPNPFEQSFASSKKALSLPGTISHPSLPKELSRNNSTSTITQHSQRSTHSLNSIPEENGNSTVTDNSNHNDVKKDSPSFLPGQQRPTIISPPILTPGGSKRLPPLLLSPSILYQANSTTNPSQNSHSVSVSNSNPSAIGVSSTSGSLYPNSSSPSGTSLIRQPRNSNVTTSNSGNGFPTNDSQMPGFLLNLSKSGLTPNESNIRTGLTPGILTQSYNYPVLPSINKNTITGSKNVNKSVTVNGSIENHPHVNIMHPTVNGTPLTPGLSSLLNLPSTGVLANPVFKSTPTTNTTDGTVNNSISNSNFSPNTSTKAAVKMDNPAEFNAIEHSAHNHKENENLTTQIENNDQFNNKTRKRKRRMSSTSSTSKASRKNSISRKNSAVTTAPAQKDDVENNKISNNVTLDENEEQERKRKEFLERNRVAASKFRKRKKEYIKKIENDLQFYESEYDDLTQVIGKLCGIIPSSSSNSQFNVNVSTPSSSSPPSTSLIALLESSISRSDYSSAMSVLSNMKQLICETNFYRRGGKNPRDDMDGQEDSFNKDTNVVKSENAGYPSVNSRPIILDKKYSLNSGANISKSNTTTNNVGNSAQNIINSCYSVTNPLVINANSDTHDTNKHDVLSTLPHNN
Method in brief: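 GST-tagged yeast TFs (full-length or DNA-binding domain) were made by PURExpress in vitro transcription/translation and applied at about 100-200 nM to universal all-10-mer Agilent arrays. The arrays were made double-stranded by primer extension, on fresh or once-stripped slides. Bound protein was detected with fluorescent anti-GST, and scans were normalised with masliner. Each ungapped eight-base word, pooled with its reverse complement, received an E-score (modified Wilcoxon-Mann-Whitney statistic) from the Universal PBM Analysis Suite.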

Sequence	PBM E-score
AACGGGTA	-0.0593
AAAAGTAG	0.113
ACTTGTCA	-0.0956
AGCAAGAC	0.0222
GTGCCCGA	-0.0346
AAGTACTG	-0.00326
ACACGCCG	-0.00264
AAACACAA	0.156
ACATCCCG	-0.121
AGACGCGA	0.0267
CTTGCGTA	0.423
GCAGAAAC	0.159
AGATCGCG	0.125
AAGTTACG	0.359
GACACGCA	0.284
ACTAAAAG	-0.0606
GCTAGATA	-0.0211
TATAGTCA	0.198
GTATGGTA	0.118
CCAGACTC	-0.189
AAGCTGAG	-0.212
CTAAGAGA	-0.098

Sequence	PBM E-score
CGAGAACC	-0.0241
CCCCTAGG	-0.328
GAGAGCAC	-0.197
GACAGTAC	0.0679
ACCGTTCT	-0.209
CTTAGTTC	0.0167
GAATCTAC	0.11
GAGTGCAA	-0.0317
AAGACGGC	-0.219
TCAAAGGA	-0.0321
ATGTTATG	0.257
CGCAATGC	0.257
ACCACAGT	0.0256
GTAGATAC	0.215
CACCACTA	0.0347
CGCAGTGA	0.122
CAGGACCC	-0.221
ATTGTAAC	0.0439
CCACGAAC	0.15
ACATGACG	0.474
CCAGGACG	0.0314
GCAGGTCC	-0.172

Sequence	PBM E-score
CAAAATTA	0.166
CTGCTTCA	-0.228
CCCCAAGG	-0.298
CCAACTGA	-0.0126
AAACATGT	0.184
CGTCATAA	0.487
GTTGCACA	0.0444
AAATCCAC	0.0315
AGAGCTTG	-0.0699
ATGAGAGG	-0.224
ATTCACAG	-0.0319
ACGAAGAA	0.295
AGCCCGTA	-0.134
AACGTTTA	0.31
GCCACTCC	-0.277
GTACGATA	0.287
ACGGAATA	0.0427
ACGCCGGA	-0.276
AAACACCC	-0.0918
CCCGTCGC	-0.262
ACTGCTAG	-0.263
AGACTTTG	-0.0547

Sequence	PBM E-score
AGGGGGGG	-0.49
GATCAGTA	0.235
AATTTTGA	0.203
CCAAGGAA	-0.256
ACTATGGA	-0.0882
AAAGTGTC	-0.118
CCCGTCGA	-0.111
GATAAAAA	0.155
ATATACTG	0.125
ATTTTTTC	0.133
AGGCAAGC	-0.126
CGAGATTC	0.0133
CATGATAC	0.239
CTGGCTGC	-0.304
CGTCCCTA	0.0473
CCAAGTAG	-0.171
CCTGGTCG	-0.159
CTTTTGCC	-0.117
GGACAGCA	-0.0316
GAGACCCC	-0.309
